Results on 22 variants are retold here after the RNAGym collection of RNA variant scans (doi:10.7554/elife.90254).

The source gives no read counts; variants with many changes may rest on few reads.

The chains are these.
B1: LINE1-mini (parent)
chain: GGCAGAGCUCAACACAGCGUGGCAAAGUGGCUGUGGCUAGACUGCC

This data set covers variants of B1. Put plainly: self-cleavage, relative activity (ratio to wild type); higher = more cleavage; in vitro, sequencing; the parent is a self-cleaving ribozyme.
A39U U43A G44A: the self-cleavage is 0.09.

Take G44U C45U C46U: the self-cleavage was 0.2.

Consider G40A A41U C46A, for which the self-cleavage came out at 0.19.

In the case of U43A C45A C46A, the self-cleavage stood at 0.03.

Regarding A41U G44C C45A, the self-cleavage amounted to 0.14.

Turning to G44A C45U C46G, the self-cleavage amounted to 0.18.

With G40C C42G G44U, the self-cleavage turned out to be 0.09.

Turning to G40C C42G C46G, the self-cleavage was 0.05.

As to G40U A41U C45G, the self-cleavage is 0.54.

For G40C C45A C46U, the self-cleavage was determined as 0.08.

For the variant C42A G44U C46U, the self-cleavage came out at 0.04.

Regarding A41C C42U U43C, the self-cleavage was 0.04.

As for G40U U43G G44A, the self-cleavage was 0.05.

Consider A41G C42U C46G, for which the self-cleavage is 0.02.

For C42U U43A C45U, the self-cleavage was 0.01.

On to G40U A41G G44C, for which the self-cleavage amounted to 0.08.

C42G G44A C46G: the self-cleavage turned out to be 0.03.

On to G40U C42A G44A, for which the self-cleavage worked out at 0.04.

Take A41C U43G C46G: the self-cleavage came out at 0.02.

On to C42G G44C C45A, for which the self-cleavage turned out to be 0.05.

For the variant G40C C42A G44A, the self-cleavage was found to be 0.01.

On to A41U U43G C45U, for which the self-cleavage was found to be 0.14.
